# Data: paper PMC10726135
# The other results are listed elsewhere or left out. At the low end of the ranking, values are background and their order means little. Measured with an extract: partners may take part in the binding.
# Target: T1, HNF4alpha2 (COS-7 nuclear extract) (UniProt P41235)
# T1 sequence: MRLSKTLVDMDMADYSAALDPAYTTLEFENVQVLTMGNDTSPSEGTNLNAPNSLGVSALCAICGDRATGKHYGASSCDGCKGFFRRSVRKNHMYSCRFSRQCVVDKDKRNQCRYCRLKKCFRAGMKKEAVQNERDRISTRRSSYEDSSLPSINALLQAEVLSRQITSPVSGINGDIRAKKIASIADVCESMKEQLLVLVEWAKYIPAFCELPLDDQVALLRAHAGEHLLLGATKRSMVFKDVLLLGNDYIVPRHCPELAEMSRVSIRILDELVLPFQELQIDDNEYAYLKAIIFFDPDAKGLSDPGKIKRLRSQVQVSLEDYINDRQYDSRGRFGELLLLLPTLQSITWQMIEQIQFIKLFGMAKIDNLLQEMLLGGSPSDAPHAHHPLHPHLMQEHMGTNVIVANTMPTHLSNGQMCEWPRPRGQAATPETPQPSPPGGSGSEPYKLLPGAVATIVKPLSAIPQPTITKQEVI
# Experiment: protein-binding microarray
# Settings: COS-7 nuclear extract on double-stranded Agilent 4x180k PBM; binding buffer, salt, pH and temperature not given; high values mean tight binding; double strand, one strand shown; sequences stand for … in …GCCTAGGGAGATTAGAGTATCGGTCGA
row,Sequence,binding signal (log2 normalized intensity)
1,CCACCTGGAATGTGCTCCCGACTGCTCCAC,-1.24
2,GCAAACCTGCCCTTTGCTCCAGAGGAAGAT,2.77
3,ACCCATATCTGACTGATGCTAAAGTCTACA,0.98
4,CAGAAACCTCATTGTGATGTGTGCGTTCAT,1.61
5,ACTAAGATTTGACTGGAATGTCAAAGGGAC,1.29
6,AACTCCAAGATTAGTGGGAAAGCTATTGCT,-1.07
7,CGAGCATGGCCGCTCCGCGAGGTGAGCCAT,0.717
8,GATCAATGAATACATGAGTGATCCTGAAAA,-0.515
9,TCAGAAATGCATGAGTGACCTTTATCCAGT,5.05
10,GGAGGAGACTTTGACCTCTGCTAGGTTTGG,4.76
11,CCTCATTTTTCCTGGATGCCAGGCAAGAGC,0.346
12,ACTTAAGTCTCAAAGGTCAGATGACAGAAT,3.83
13,GGGCAGCTCCGTTTACCTAGAGGCAGGCGT,-1.1
14,TAGAATTGCACTGCAAAGAAGTCAAACTTT,0.602
15,GATAACATCTGGACTTTACACAGACCTTTA,3.25
16,ACAGATCAGATATGAGATTCCCAGAGAGCT,-1.14
17,CTGGCTTTCTTTGGAGTCAATCTGCAAAGG,1.16
18,ACATGGAATGTCGTGCCCTAATCTCACTCT,-1.16
19,ATACTGCAGCTCTGCGTCTTACTAAATGCA,-0.924
20,TGTGTCTTATTTATCTTCACATTCCATCAT,1.43
21,AGATTAATGTCAGCCTGCTCAGGGAGAAGC,-1.16
22,GCCTCACACCCTCTAGGGTAGATAAGGATG,-1.05
23,GATGGGGGTGGGAGGCTGGGAGGAGGGTAA,-1.13
24,TAGCATGAATTTGGTACCTCCCCCCACACC,5.45

row,Sequence,binding signal (log2 normalized intensity)
1,GAAAAGGAAATATCTTCGTATAGAAACAAG,-0.946
2,CTGAGAAGATGAAAGACGAAAGGGACTTTG,1.96
3,CCCAGATGGAGTGCTCTGAACCGTGTACCT,1.61
4,GGGACTGTGCAGACAAGATATGAGGCCAGT,-1.1
5,TCCCATCTTGCAGCTGACCCTGGCCGGAAA,1.07
6,GCAGGCTTAGCTGGGCTAGCACCTGTGGAT,-1.19
7,TACTTTGCTCTCAGCACACTCTGGTACCAT,-0.832
8,ACAGAAGGCAGAGATTTGAGTCAACCCAAC,-1.04
9,TCTCACATCTGATAGCTAAACCAGATACGT,-1.11
10,CAGCGACTGAGCTGAGGTTAGAATCCTTAT,-1.12
11,GGTGGTGACAAAGACAGATTAGATCTGCGT,-1.08
12,CTTGGAGGCGGCGGCTCCGGGAGCTGGCGG,-1.11
13,CCAGGTCGGGCCGGAGAGGCTTATTCCGTA,-1.2
14,TTGATGGTTAAAGTCCAATCTTCTGGCCCC,4.27
15,TATGGACCTTGTCCCTGGATTGTGTTGCAC,2.64
16,GGAGGACTTTGGAATGGCAGTGCTTGTCCA,1.83
17,TCTGGTGCCAAGGAGCCTCTGCAACCTTTG,2.46
18,GTCAAAAATTTGTGTGTAACATTTGACTTC,1.32
19,GCGGCTGCAAATTCTGCATTTTTCTTTCCT,-0.928
20,TGGGCCCCACAGTGCATCTGATAAGGTTGT,0.921
21,GACAAAGGTCATTCATGTGCAGGTTGGAAT,2.77
22,CCCCTTGGCTACATGTTTGTCTTTCAAACA,1.05
23,TGTGAATGAAAGAGACTAGTATGTAAATAA,0.38
24,CCCCACCCCCACTGCCTGACCCCAAGTAAT,6.98

row,Sequence,binding signal (log2 normalized intensity)
1,TGCTTCAGCAAAACCAGTTTGTCTGATCTT,-0.657
2,CAAGGTCCCATGGCTAATCTGTGACTGAGC,-1.2
3,AAGGGGAAATATGTAGGTTTGGGGAACTTT,0.936
4,GTGATCAGAGATCTAGGTGAGGGATGAGGA,-1.09
5,CAAAGGACAATAATGAATAAGCACGTTAGA,-1.16
6,AGCAGAAAATCCAGGTGCAGTGTGAGAGGA,-0.963
7,TGATTGCTGTCTACTCTGGGGGTCAGCAAT,2.31
8,TCTCTCTTAAGAACGCTTGTGATTACACTG,-0.764
9,GTGACTCACCTTTGCTCTGATCTTTGACTT,3.3
10,AACCTGTTCCAAAGTCCACCGTGGTGTAGA,4.32
11,CAATCCAGAAGGCGCTGAACTTTGCCTTGT,4.39
12,CCCCACCCCACCCCACTCCACCTACGCTAC,5.39
13,CATCCCCTAAAACATCAAATACCTCCAAGA,0.294
14,TGCCATGATAAGCAGTGTGGACTTTTTCCT,2.84
15,ACTGCATGATAGGCCCATCTTCTTATCTGA,-1.05
16,GGAAAACCCGGCGCGGACATAAAATTAAAG,-1.18
17,CAAAATCAATAAATCACACGAAACAAGTAG,-1.2
18,CCATGTGCTATTCTGTCTCCTGGAAAGGTT,2.07
19,GGTCAAGTTCAGATCCTGGCCATGCCCCAG,-0.0766
20,CCCTCAGAGCTCAGATGAACTTTGCCTTAG,5.39
21,GAAGACAAGACAAGGAAGTTAAGAGTTCGA,-0.867
22,TTGCCATTTACATCAAACACTCACTGGGAG,-0.349
23,AGGCCCTGCATTAAACAAGAGAGAGTCCAC,1.81
24,GGCCATTTGGTCTGTAGTGTTGCTCAAGTC,1.54
